# The list shows a part of the results.
# Biological target: T1, MBP-FoxP1dN (Mus musculus, UniProt P58462 326-579)
# T1 sequence: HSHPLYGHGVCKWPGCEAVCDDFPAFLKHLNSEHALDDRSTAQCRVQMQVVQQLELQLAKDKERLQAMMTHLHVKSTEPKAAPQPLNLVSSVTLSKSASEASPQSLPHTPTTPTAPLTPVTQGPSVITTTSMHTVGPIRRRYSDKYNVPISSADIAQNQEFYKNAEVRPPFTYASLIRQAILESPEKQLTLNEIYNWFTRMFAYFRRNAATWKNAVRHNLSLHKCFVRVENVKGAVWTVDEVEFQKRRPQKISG
# Assay: PD-seq (MBP pull-down with sequencing); 20 mM Tris-HCl pH 7.5, 100 mM NaCl, 1.5 mM MgCl2, 0.4 uM protein, 0.1 uM dsDNA library, 30 min, room temperature, amylose pull-down; high values mean tight binding
# Details: protein: recombinant; tags: His6-MBP; chain copies: 2; dsDNA, one strand shown
# In short: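 In Tris pH 7.5 buffer with NaCl and MgCl2, 0.4 µM His6-MBP-tagged mouse FoxP3 or FoxP1 fragment lacking the N-terminus, from E. coli, met 0.1 µM Klenow-filled double-stranded degenerate DNA library for 30 min at room temperature. Three washes on amylose resin followed capture of the complexes, then proteinase K release of DNA, PCR barcoding and Illumina sequencing. Binding is taken as pooled-replicate reads-per-million enrichment of pull-down relative to input.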
row,Sequence,binding signal
1,GATGATTGTTCTCCCAGCTGATGAATTAAGGAGGTCGAGTAAACAAATTTTCCTAATCTTTCTGTTCAAGCGCCATCTAC,0.762 RPM ratio (pull-down/input)
2,GATGATTGTTCTCCCAGCTGATGAATTCTGTTTCTCGAGTAAACAAATTTTCCTAATCTTTCTGTTCAAGCGCCATCTAC,1.14 RPM ratio (pull-down/input)
3,GATGATTGTTCTCCCAGCTGATGAATTCGCTTTCTCGAGTAAACAAATTTTCCTAATCTTTCTGTTCAAGCGCCATCTAC,0.862 RPM ratio (pull-down/input)
4,GATGATTGTTCTCCCAGCTGATGAATTGGGGGGCTCGAGTAAACAAATTTTCCTAATCTTTCTGTTCAAGCGCCATCTAC,0.778 RPM ratio (pull-down/input)
5,GATGATTGTTCTCCCAGCTGATGAATTAATTTCATCGAGTAAACAAATTTTCCTAATCTTTCTGTTCAAGCGCCATCTAC,0.97 RPM ratio (pull-down/input)
6,GATGATTGTTCTCCCAGCTGATGAATTTAAGAAGTCGAGTAAACAAATTTTCCTAATCTTTCTGTTCAAGCGCCATCTAC,0.847 RPM ratio (pull-down/input)
7,GATGATTGTTCTCCCAGCTGATGAATTAACAAAGTCGAGTAAACAAATTTTCCTAATCTTTCTGTTCAAGCGCCATCTAC,1.2 RPM ratio (pull-down/input)
8,GATGATTGTTCTCCCAGCTGATGAATTCCTCGGGTCGAGTAAACAAATTTTCCTAATCTTTCTGTTCAAGCGCCATCTAC,0.702 RPM ratio (pull-down/input)
9,GATGATTGTTCTCCCAGCTGATGAATTCATGTGTTCGAGTAAACAAATTTTCCTAATCTTTCTGTTCAAGCGCCATCTAC,1.34 RPM ratio (pull-down/input)
10,GATGATTGTTCTCCCAGCTGATGAATTAGACATGTCGAGTAAACAAATTTTCCTAATCTTTCTGTTCAAGCGCCATCTAC,0.909 RPM ratio (pull-down/input)
11,GATGATTGTTCTCCCAGCTGATGAATTTCGCGGTTCGAGTAAACAAATTTTCCTAATCTTTCTGTTCAAGCGCCATCTAC,0.827 RPM ratio (pull-down/input)
12,GATGATTGTTCTCCCAGCTGATGAATTCTGATCTTCGAGTAAACAAATTTTCCTAATCTTTCTGTTCAAGCGCCATCTAC,0.888 RPM ratio (pull-down/input)
13,GATGATTGTTCTCCCAGCTGATGAATTGTTTAAATCGAGTAAACAAATTTTCCTAATCTTTCTGTTCAAGCGCCATCTAC,1.34 RPM ratio (pull-down/input)
14,GATGATTGTTCTCCCAGCTGATGAATTGACACGTTCGAGTAAACAAATTTTCCTAATCTTTCTGTTCAAGCGCCATCTAC,1.14 RPM ratio (pull-down/input)
15,GATGATTGTTCTCCCAGCTGATGAATTGTCGTCGTCGAGTAAACAAATTTTCCTAATCTTTCTGTTCAAGCGCCATCTAC,1.05 RPM ratio (pull-down/input)
16,GATGATTGTTCTCCCAGCTGATGAATTCGACGTCTCGAGTAAACAAATTTTCCTAATCTTTCTGTTCAAGCGCCATCTAC,0.816 RPM ratio (pull-down/input)

row,Sequence,binding signal
1,GATGATTGTTCTCCCAGCTGATGAATTATTAGACTCGAGTAAACAAATTTTCCTAATCTTTCTGTTCAAGCGCCATCTAC,1.12 RPM ratio (pull-down/input)
2,GATGATTGTTCTCCCAGCTGATGAATTGACGAGATCGAGTAAACAAATTTTCCTAATCTTTCTGTTCAAGCGCCATCTAC,0.964 RPM ratio (pull-down/input)
3,GATGATTGTTCTCCCAGCTGATGAATTTCAGGCTTCGAGTAAACAAATTTTCCTAATCTTTCTGTTCAAGCGCCATCTAC,0.856 RPM ratio (pull-down/input)
4,GATGATTGTTCTCCCAGCTGATGAATTCCACTCGTCGAGTAAACAAATTTTCCTAATCTTTCTGTTCAAGCGCCATCTAC,0.819 RPM ratio (pull-down/input)
5,GATGATTGTTCTCCCAGCTGATGAATTGCCCTGATCGAGTAAACAAATTTTCCTAATCTTTCTGTTCAAGCGCCATCTAC,0.914 RPM ratio (pull-down/input)
6,GATGATTGTTCTCCCAGCTGATGAATTAGGCCGTTCGAGTAAACAAATTTTCCTAATCTTTCTGTTCAAGCGCCATCTAC,0.901 RPM ratio (pull-down/input)
7,GATGATTGTTCTCCCAGCTGATGAATTTGCAAGGTCGAGTAAACAAATTTTCCTAATCTTTCTGTTCAAGCGCCATCTAC,0.889 RPM ratio (pull-down/input)
8,GATGATTGTTCTCCCAGCTGATGAATTTAACGATTCGAGTAAACAAATTTTCCTAATCTTTCTGTTCAAGCGCCATCTAC,0.937 RPM ratio (pull-down/input)
9,GATGATTGTTCTCCCAGCTGATGAATTGAGGGATTCGAGTAAACAAATTTTCCTAATCTTTCTGTTCAAGCGCCATCTAC,0.896 RPM ratio (pull-down/input)
10,GATGATTGTTCTCCCAGCTGATGAATTGCAATGCTCGAGTAAACAAATTTTCCTAATCTTTCTGTTCAAGCGCCATCTAC,1.32 RPM ratio (pull-down/input)
11,GATGATTGTTCTCCCAGCTGATGAATTAGAACATTCGAGTAAACAAATTTTCCTAATCTTTCTGTTCAAGCGCCATCTAC,0.956 RPM ratio (pull-down/input)
12,GATGATTGTTCTCCCAGCTGATGAATTTATTAGCTCGAGTAAACAAATTTTCCTAATCTTTCTGTTCAAGCGCCATCTAC,1.19 RPM ratio (pull-down/input)
13,GATGATTGTTCTCCCAGCTGATGAATTACACCCATCGAGTAAACAAATTTTCCTAATCTTTCTGTTCAAGCGCCATCTAC,1.21 RPM ratio (pull-down/input)
14,GATGATTGTTCTCCCAGCTGATGAATTCTGAGAGTCGAGTAAACAAATTTTCCTAATCTTTCTGTTCAAGCGCCATCTAC,0.785 RPM ratio (pull-down/input)
15,GATGATTGTTCTCCCAGCTGATGAATTGAGCCTTTCGAGTAAACAAATTTTCCTAATCTTTCTGTTCAAGCGCCATCTAC,0.873 RPM ratio (pull-down/input)
